Test results reported in publication PMC9911399, “Two distinct binding modes provide the RNA-binding protein RbFox with extraordinary sequence specificity”.
Where a chain is given by its changes, count along the chain named. Some of the results follow.

T1: RBFOX1 RRM RbFoxmut (Fox-RRM*) (Homo sapiens, UniProt Q9NWB1 109-208, R118D;E147R;N151S;E152T)
T1 sequence: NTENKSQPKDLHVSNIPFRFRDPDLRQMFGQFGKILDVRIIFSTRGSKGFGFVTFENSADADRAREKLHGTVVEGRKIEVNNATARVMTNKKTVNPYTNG

B1: AACACGC (DNA:RNA)
RNA: GGGAGACCGGAAUUCAGAUUGUCCAACACGCUUAAAUCCCGUCGUAGCCACCA
DNA 1: CAATCTGAATTCCGGTCTCCC
DNA 2: TGGTGGCTACGACGGGATT
B2: GUAUCUA (DNA:RNA)
RNA: B1 RNA with A25G, A26U, C27A, A28U, G30U, C31A
DNA 1: CAATCTGAATTCCGGTCTCCC
DNA 2: TGGTGGCTACGACGGGATT
B3: CAGAUCG (DNA:RNA)
RNA: B1 RNA with A25C, C27G, C29U, G30C, C31G
DNA 1: CAATCTGAATTCCGGTCTCCC
DNA 2: TGGTGGCTACGACGGGATT
B4: CUGAGGG (DNA:RNA)
RNA: B1 RNA with A25C, A26U, C27G, C29G, C31G
DNA 1: CAATCTGAATTCCGGTCTCCC
DNA 2: TGGTGGCTACGACGGGATT
B5: UGCUCAC (DNA:RNA)
RNA: B1 RNA with A25U, A26G, A28U, G30A
DNA 1: CAATCTGAATTCCGGTCTCCC
DNA 2: TGGTGGCTACGACGGGATT
B6: CGAACAA (DNA:RNA)
RNA: B1 RNA with A25C, A26G, C27A, G30A, C31A
DNA 1: CAATCTGAATTCCGGTCTCCC
DNA 2: TGGTGGCTACGACGGGATT
B7: GCAGAGU (DNA:RNA)
RNA: B1 RNA with A25G, A26C, C27A, A28G, C29A, C31U
DNA 1: CAATCTGAATTCCGGTCTCCC
DNA 2: TGGTGGCTACGACGGGATT
B8: AGACCCG (DNA:RNA)
RNA: B1 RNA with A26G, C27A, A28C, G30C, C31G
DNA 1: CAATCTGAATTCCGGTCTCCC
DNA 2: TGGTGGCTACGACGGGATT
B9: GAUUGGU (DNA:RNA)
RNA: B1 RNA with A25G, C27U, A28U, C29G, C31U
DNA 1: CAATCTGAATTCCGGTCTCCC
DNA 2: TGGTGGCTACGACGGGATT
B10: CUGUCGC (DNA:RNA)
RNA: B1 RNA with A25C, A26U, C27G, A28U
DNA 1: CAATCTGAATTCCGGTCTCCC
DNA 2: TGGTGGCTACGACGGGATT
B11: CACGCAC (DNA:RNA)
RNA: B1 RNA with A25C, A28G, G30A
DNA 1: CAATCTGAATTCCGGTCTCCC
DNA 2: TGGTGGCTACGACGGGATT
B12: UGGCUAC (DNA:RNA)
RNA: B1 RNA with A25U, A26G, C27G, A28C, C29U, G30A
DNA 1: CAATCTGAATTCCGGTCTCCC
DNA 2: TGGTGGCTACGACGGGATT
B13: CAAAUAC (DNA:RNA)
RNA: B1 RNA with A25C, C27A, C29U, G30A
DNA 1: CAATCTGAATTCCGGTCTCCC
DNA 2: TGGTGGCTACGACGGGATT
B14: GUAUAUG (DNA:RNA)
RNA: GGGAGACCGGAAUUCAGAUUGUCCGUAUAUGUUAAAUCCCGUCGUAGCCACCA
DNA 1: CAATCTGAATTCCGGTCTCCC
DNA 2: TGGTGGCTACGACGGGATT
B15: ACUUUGU (DNA:RNA)
RNA: B1 RNA with A26C, C27U, A28U, C29U, C31U
DNA 1: CAATCTGAATTCCGGTCTCCC
DNA 2: TGGTGGCTACGACGGGATT
B16: GUGAACC (DNA:RNA)
RNA: B14 RNA with A27G, U28A, U30C, G31C
DNA 1: CAATCTGAATTCCGGTCTCCC
DNA 2: TGGTGGCTACGACGGGATT
B17: UGUCCAU (DNA:RNA)
RNA: B1 RNA with A25U, A26G, C27U, A28C, G30A, C31U
DNA 1: CAATCTGAATTCCGGTCTCCC
DNA 2: TGGTGGCTACGACGGGATT
B18: GAUUUUC (DNA:RNA)
RNA: B14 RNA with U26A, A27U, A29U, G31C
DNA 1: CAATCTGAATTCCGGTCTCCC
DNA 2: TGGTGGCTACGACGGGATT
B19: UGAAAAU (DNA:RNA)
RNA: B14 RNA with G25U, U26G, U28A, U30A, G31U
DNA 1: CAATCTGAATTCCGGTCTCCC
DNA 2: TGGTGGCTACGACGGGATT
B20: AUGGGUU (DNA:RNA)
RNA: B14 RNA with G25A, A27G, U28G, A29G, G31U
DNA 1: CAATCTGAATTCCGGTCTCCC
DNA 2: TGGTGGCTACGACGGGATT
B21: CAACUUA (DNA:RNA)
RNA: B14 RNA with G25C, U26A, U28C, A29U, G31A
DNA 1: CAATCTGAATTCCGGTCTCCC
DNA 2: TGGTGGCTACGACGGGATT
B22: AGGAAUC (DNA:RNA)
RNA: B1 RNA with A26G, C27G, C29A, G30U
DNA 1: CAATCTGAATTCCGGTCTCCC
DNA 2: TGGTGGCTACGACGGGATT
B23: CUGGGUU (DNA:RNA)
RNA: B14 RNA with G25C, A27G, U28G, A29G, G31U
DNA 1: CAATCTGAATTCCGGTCTCCC
DNA 2: TGGTGGCTACGACGGGATT
B24: UGGCCUG (DNA:RNA)
RNA: B14 RNA with G25U, U26G, A27G, U28C, A29C
DNA 1: CAATCTGAATTCCGGTCTCCC
DNA 2: TGGTGGCTACGACGGGATT
B25: GAGGUAU (DNA:RNA)
RNA: B1 RNA with A25G, C27G, A28G, C29U, G30A, C31U
DNA 1: CAATCTGAATTCCGGTCTCCC
DNA 2: TGGTGGCTACGACGGGATT
B26: GCCUCGA (DNA:RNA)
RNA: B1 RNA with A25G, A26C, A28U, C31A
DNA 1: CAATCTGAATTCCGGTCTCCC
DNA 2: TGGTGGCTACGACGGGATT
B27: ACAAGAC (DNA:RNA)
RNA: B1 RNA with A26C, C27A, C29G, G30A
DNA 1: CAATCTGAATTCCGGTCTCCC
DNA 2: TGGTGGCTACGACGGGATT
B28: AGACUGA (DNA:RNA)
RNA: B1 RNA with A26G, C27A, A28C, C29U, C31A
DNA 1: CAATCTGAATTCCGGTCTCCC
DNA 2: TGGTGGCTACGACGGGATT
B29: UUCAUUG (DNA:RNA)
RNA: B14 RNA with G25U, A27C, U28A, A29U
DNA 1: CAATCTGAATTCCGGTCTCCC
DNA 2: TGGTGGCTACGACGGGATT
B30: UGUUUCU (DNA:RNA)
RNA: B14 RNA with G25U, U26G, A27U, A29U, U30C, G31U
DNA 1: CAATCTGAATTCCGGTCTCCC
DNA 2: TGGTGGCTACGACGGGATT
B31: AGCGAUU (DNA:RNA)
RNA: B1 RNA with A26G, A28G, C29A, G30U, C31U
DNA 1: CAATCTGAATTCCGGTCTCCC
DNA 2: TGGTGGCTACGACGGGATT

Biological target: T1, RBFOX1 RRM RbFoxmut (Fox-RRM*)
Assay: EMSA; HiTS-Eq, 1 nM pool, 10 min; buffer printed only for the single-RNA assays: 10 mM Tris pH 7.5, 150 mM NaCl, 3.4 mM EDTA, 0.001% NP-40, 30 C
Details: tags: His6 N-terminal (pET28a); label: 5' 32P
Procedure, shortened: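 Purified RbFox RRM, wild type or mutant, was incubated for 10 min in 50 µL with 1 nM of a 5′-radiolabelled RNA pool carrying 7 randomized nucleotides, whose flanks were annealed to DNA oligonucleotides, over a series of increasing protein concentrations. Unbound RNA was resolved on 8% native PAGE, cut out, reverse-transcribed, barcoded by PCR and sequenced on an Illumina HiSeq 2500. Relative association constants were derived from changes in read counts for each RNA species versus the control reaction and normalised to the cognate motif.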

Row | Binder | binding signal
1 | B1 | 0.0609 KA relative to UGCAUGU
2 | B2 | 0.227 KA relative to UGCAUGU
3 | B3 | 0.0942 KA relative to UGCAUGU
4 | B4 | 0.066 KA relative to UGCAUGU
5 | B5 | 0.119 KA relative to UGCAUGU
6 | B6 | 0.0349 KA relative to UGCAUGU
7 | B7 | 0.125 KA relative to UGCAUGU
8 | B8 | 0.0812 KA relative to UGCAUGU
9 | B9 | 0.172 KA relative to UGCAUGU
10 | B10 | 0.0972 KA relative to UGCAUGU
11 | B11 | 0.0772 KA relative to UGCAUGU
12 | B12 | 0.0987 KA relative to UGCAUGU
13 | B13 | 0.0909 KA relative to UGCAUGU
14 | B14 | 0.199 KA relative to UGCAUGU
15 | B15 | 0.117 KA relative to UGCAUGU
16 | B16 | 0.13 KA relative to UGCAUGU

Row | Binder | binding signal
17 | B17 | 0.109 KA relative to UGCAUGU
18 | B18 | 0.0366 KA relative to UGCAUGU
19 | B19 | 0.0582 KA relative to UGCAUGU
20 | B20 | 0.143 KA relative to UGCAUGU
21 | B21 | 0.121 KA relative to UGCAUGU
22 | B22 | 0.261 KA relative to UGCAUGU
23 | B23 | 0.11 KA relative to UGCAUGU
24 | B24 | 0.359 KA relative to UGCAUGU
25 | B25 | 0.129 KA relative to UGCAUGU
26 | B26 | 0.197 KA relative to UGCAUGU
27 | B27 | 0.0628 KA relative to UGCAUGU
28 | B28 | 0.0992 KA relative to UGCAUGU
29 | B29 | 0.13 KA relative to UGCAUGU
30 | B30 | 0.134 KA relative to UGCAUGU
31 | B31 | 0.072 KA relative to UGCAUGU
